Data as given in patent publication US20260365731 (published 2026).

Target: T1, human VEGFA (human, UniProt P15692)
T1 chain: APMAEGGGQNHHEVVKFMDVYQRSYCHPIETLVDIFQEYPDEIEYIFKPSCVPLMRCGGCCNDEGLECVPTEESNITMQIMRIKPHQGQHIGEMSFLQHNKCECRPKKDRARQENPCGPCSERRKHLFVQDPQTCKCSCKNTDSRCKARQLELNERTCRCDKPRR
Assay: SPR

- binding result: no binding
B1: human PD-1 (protein)
chain: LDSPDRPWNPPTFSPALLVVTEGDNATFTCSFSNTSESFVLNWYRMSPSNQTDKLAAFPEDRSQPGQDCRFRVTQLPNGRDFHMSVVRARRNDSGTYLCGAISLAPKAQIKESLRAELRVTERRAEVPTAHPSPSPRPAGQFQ
